Measurements taken from the supplement of paper PMC6089552.
About 300 (9.4%) of roughly 3,200 compounds showed activity. The list shows a part of the results, in another mix than the full data.

Test system: A673/TR/shEF
Test: cell viability (LOESS-normalised, relative to median of negative controls) (log2 ratio); higher = more viable cells (less compound effect), active = hit call of the paper (over 3 MAD below the median)
Conditions: treatment time: 72 h
Method in brief: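 Viability of A673/TR/shEF Ewing sarcoma cells was determined by CellTiter-Glo luminescence. The cells, at 1,500 per well in 384-well plates, were grown with or without doxycycline from 24 h before compound addition to switch on EWS-FLI1 shRNA knockdown, then exposed for three days to library compounds at two or more concentrations or to DMSO controls. Signals were LOESS-corrected plate by plate, normalised to the negative-control median and log2-transformed.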

[1] = 0.25 µM, library screen: screen1, EWS-FLI1 expression: high (no doxycycline)
[2] = 0.25 µM, library screen: screen1, EWS-FLI1 expression: low (doxycycline-induced shRNA knockdown)
[3] = 2.5 µM, library screen: screen1, EWS-FLI1 expression: high (no doxycycline)
[4] = 2.5 µM, library screen: screen1, EWS-FLI1 expression: low (doxycycline-induced shRNA knockdown)
[5] = 0.25 µM, library screen: screen2, EWS-FLI1 expression: high (no doxycycline)
[6] = 0.25 µM, library screen: screen2, EWS-FLI1 expression: low (doxycycline-induced shRNA knockdown)
[7] = 2.5 µM, library screen: screen2, EWS-FLI1 expression: high (no doxycycline)
[8] = 2.5 µM, library screen: screen2, EWS-FLI1 expression: low (doxycycline-induced shRNA knockdown)
[9] = 25 µM, library screen: screen2, EWS-FLI1 expression: high (no doxycycline)
[10] = 0.025 µM, library screen: screen1, EWS-FLI1 expression: high (no doxycycline)
[11] = 0.025 µM, library screen: screen1, EWS-FLI1 expression: low (doxycycline-induced shRNA knockdown)
[12] = 25 µM, library screen: screen1, EWS-FLI1 expression: high (no doxycycline)
[13] = 25 µM, library screen: screen1, EWS-FLI1 expression: low (doxycycline-induced shRNA knockdown)

Measured: cell viability (log2)

C[C@@H]1CC[C@H]2[C@@H](C)C(=O)O[C@@H]3OC4(C)CC[C@@H]1[C@]32OO4
inactive: [1] 0.0266 | [2] 0.0821 | [3] 0.0419 | [4] -0.14

CCCCc1ccc(C(=O)O)nc1
inactive: [5] 0.23 | [6] 0.102 | [7] 0.0889 | [8] 0.0776

COc1cc(OC)c2c(c1)OC(c1ccc(OC)c(OC)c1)C(O)C2 (stereo not given)
inactive: [1] 0.123 | [2] 0.00653 | [3] 0.0915 | [4] 0.0594

CCN(CC)C(=O)N[C@@H]1C[C@@H]2c3cccc4[nH]cc(c34)C[C@H]2N(C)C1
inactive: [5] 0.108 | [6] 0.0251 | [7] 0.215 | [8] -0.0279

Oc1cccc2cccnc12
inactive: [1] 0.142 | [2] 0.121 | [3] 0.105 | [4] 0.189

N#C/C(=C\c1ccc(O)cc1)C(=O)O
inactive: [1] 0.0465 | [2] 0.0904 | [3] 0.146 | [4] 0.0788

CC1=C(O)C(=O)C=C2C1=CC=C1[C@@]2(C)CC[C@@]2(C)[C@@H]3C[C@](C)(C(=O)O)CC[C@]3(C)CC[C@]12C
active: [3] -1.03 | [7] -4.23 | [8] -0.301 | [9] -4.23 | 25 µM, library screen: screen2, EWS-FLI1 expression: low (doxycycline-induced shRNA knockdown) -3.9

C[N+](C)(C)CC#CCOC(=O)Nc1cccc(Cl)c1
inactive: [5] 0.167 | [6] 0.106 | [7] 0.105 | [8] 0.151

CN1C[C@@H](NS(=O)(=O)N(C)C)C[C@@H]2c3cccc4c3c(cn4C)C[C@H]21
inactive: [5] 0.207 | [6] 0.0745 | [7] 0.103 | [8] 0.092

NC(CF)(Cc1cnc[nH]1)C(=O)O (stereo not given)
inactive: [5] 0.186 | [6] 0.069 | [7] 0.162 | [8] 0.1

O=C(O)CCCc1ccc(N(CCCl)CCCl)cc1
active: [9] -0.0762

NCC(O)c1cc(O)c(O)cc1F (stereo not given)
inactive: [5] 0.233 | [6] 0.183 | [7] 0.0966 | [8] 0.0732

CCS(=O)(=O)Nc1cccc(C(=C2CCCCC2)c2cnc[nH]2)c1
inactive: [5] -0.0183 | [6] -0.0237 | [7] 0.0641 | [8] 0.0508

Cc1[nH]c2ccc(O)cc2c1CCN
inactive: [5] 0.199 | [6] 0.0163 | [7] 0.097 | [8] 0.0824

C=CCN1CCc2cccc3c2[C@H]1Cc1ccc(O)c(O)c1-3
inactive: [5] 0.199 | [6] 0.00481 | [7] 0.133 | [8] 0.0436

COc1nc(NC(C)C)nc(NC(C)C)n1
inactive: [1] -0.00161 | [2] 0.0381 | [3] 0.104 | [4] 0.186

COc1ccc(C(=O)N2CCCC2=O)cc1
inactive: [1] 0.125 | [2] -0.00785 | [5] 0.274 | [6] 0.128 | [3] 0.148 | [4] 0.00726 | [7] 0.115 | [8] 0.0948

CC1(C)C2CC(=O)[C@]3(C)C(CC[C@@]4(C)[C@H](c5ccoc5)OC(=O)[C@H]5O[C@]543)[C@@]2(C)C=C[C@@H]1O (stereo not given in full)
inactive: [1] 0.0868 | [2] 0.0799 | [3] 0.177 | [4] 0.105

CCCCCCCCCCCCCC(=O)O[C@@H]1[C@@H](C)[C@@]2(O)[C@@H](C=C(CO)C[C@]3(O)C(=O)C(C)=C[C@@H]23)[C@@H]2C(C)(C)[C@]12OC(C)=O
active: [5] -0.184 | [6] -0.159 | [7] -0.478 | [8] -0.292

O=P(O)(O)Cc1ccccc1
inactive: [10] 0.115 | [11] -0.0367 | [1] 0.209 | [2] -0.089
active: [3] -0.281 | [4] -0.453 | [12] -0.356 | [13] -1.06

COc1cc(C=C(C#N)C#N)cc(O)c1O
inactive: [5] 0.15 | [6] 0.104 | [7] 0.12 | [8] 0.124

COc1cc([C@@H]2c3cc4c(cc3[C@H](OC(C)=O)[C@H]3COC(=O)[C@H]23)OCO4)cc(OC)c1OC
active: [1] -3.77 | [2] -0.983 | [3] -3.58 | [4] -1.13

OC[C@H]1O[C@@H](n2cnc3cc(Cl)c(Cl)cc32)[C@H](O)[C@@H]1O
inactive: [10] 0.182 | [11] -0.067 | [1] 0.227 | [2] 0.0134 | [4] 0.128 | [13] 0.0669
active: [3] -0.183 | [12] -0.16

C[N+]1(C)CCOC(O)(c2ccc(-c3ccc(C4(O)C[N+](C)(C)CCO4)cc3)cc2)C1 (stereo not given)
inactive: [5] 0.187 | [6] 0.0871 | [7] 0.129 | [8] -0.00984

Nc1ccncc1
inactive: [5] 0.0331 | [6] 0.0977 | [7] 0.0595 | [8] 0.144

COc1ccc(-n2nc(C(F)(F)F)cc2-c2ccc(Cl)cc2)cc1
inactive: [5] 0.23 | [6] 0.0593 | [7] 0.169 | [8] 0.155

CN[C@@H]1[C@@H](O)[C@@H](O[C@@H]2[C@@H](O)[C@H](O[C@H]3O[C@H](CN)CC[C@H]3N)[C@@H](N)C[C@H]2N)OC[C@]1(C)O
inactive: [1] 0.0502 | [2] -0.0312 | [3] 0.184 | [4] 0.0476

CN=C1CN(O)C(c2ccccc2)=c2cc(Cl)ccc2=N1
inactive: [1] 0.0853 | [2] 0.0654 | [3] 0.0997 | [4] 0.0898

C[C@H]1C[C@@H](O)[C@]2(O)[C@@]13CC(=O)OC[C@@]2(C)[C@](C)(O)C(=O)C3
inactive: [1] 0.0914 | [2] -0.0111 | [3] 0.0806 | [4] 0.024

CCCCCCC(C)(C)c1ccc([C@H]2C[C@@H](O)CC[C@H]2CCCO)c(O)c1
inactive: [5] 0.0289 | [6] 0.103 | [7] 0.129 | [8] 0.122

C[N+](C)(C)CC#CCN1CCCC1=O
inactive: [5] 0.0847 | [6] 0.0833 | [7] -0.00818 | [8] 0.0426

NC(=O)c1ccc(OCC(O)CN2CC=C(c3ccc(F)cc3)CC2)cc1 (stereo not given)
inactive: [5] 0.0654 | [6] 0.0528 | [7] 0.156 | [8] 0.0805

CC(C)=CC1C(C(=O)OCc2cccc(Oc3ccccc3)c2)C1(C)C (stereo not given)
inactive: [1] 0.00222 | [2] 0.0363 | [3] 0.0748 | [4] 0.0487

NC(=O)CN1CC(O)CC1=O (stereo not given)
inactive: [5] 0.159 | [6] 0.0927 | [7] 0.0479 | [8] 0.0838

C/C=C(/C)C(=O)O[C@H]1CC[C@@]2(C)[C@@H]3CC[C@H]4[C@]5(O)C[C@H](O)[C@@]6(O)[C@@H](CN7C[C@@H](C)CC[C@H]7[C@@]6(C)O)[C@]5(O)C[C@@]42O[C@]13O
inactive: [1] 0.0954 | [2] 0.0385 | [3] 0.186 | [4] -0.0784

COc1cc([C@@H]2c3cc4c(cc3[C@H](O)[C@H]3COC(=O)[C@@H]23)OCO4)cc(OC)c1OC
active: [3] -2.1 | [4] -0.572

CN1CCC(c2c[nH]c3ccc(O)cc23)CC1
inactive: [5] 0.195 | [6] 0.166 | [7] 0.184 | [8] 0.0715

CC(C)[C@@]1(NC(=O)[C@@H]2C[C@@H]3c4cccc5[nH]cc(c45)C[C@H]3N(C)C2)O[C@@]2(O)[C@@H]3CCCN3C(=O)[C@H](Cc3ccccc3)N2C1=O
inactive: [5] 0.0481 | [6] 0.0917 | [7] 0.11 | [8] 0.0904

CC(=O)C1=C(O)[C@@H]2[C@H]3c4c[nH]c5cccc(c45)C[C@H]3C(C)(C)N2C1=O
inactive: [1] 0.0498 | [2] 0.042 | [3] 0.0855 | [4] 0.00492

CC1Cc2cc3c(cc2C(c2ccc(N)cc2)=NN1)OCO3 (stereo not given)
0.339: [5]
inactive: [6] 0.0421 | [7] 0.085 | [8] 0.09

CC(C)CC(NC(=O)C(Cc1ccccc1)NC(=O)CNC(=O)CNC(=O)C(N)Cc1ccc(O)cc1)C(=O)O (stereo not given)
inactive: [1] 0.0697 | [2] 0.0904 | [3] 0.0902 | [4] 0.179

CC(N)Cc1c[nH]c2ccc(OCc3cccs3)cc12 (stereo not given)
inactive: [5] 0.0866 | [6] 0.123 | [7] 0.029 | [8] 0.0523

CC1(C)C2C[C@@H](O)[C@]3(C)C(CC[C@@]4(C)[C@H](c5ccoc5)OC(=O)[C@H]5O[C@]543)[C@@]2(C)[C@@H](O)C[C@H]1O (stereo not given in full)
inactive: [1] 0.0675 | [2] 0.0959 | [3] 0.135 | [4] 0.0584

COc1ccc2c3c([nH]c2c1)C(C)=NCC3
inactive: [1] 0.0653 | [2] 0.0133 | [3] 0.0867 | [4] 0.107

CCCN1CCC[C@@H]2Cc3[nH]ncc3C[C@H]21
inactive: [5] 0.208 | [6] 0.0276 | [7] 0.158 | [8] 0.0446

Clc1cc(I)cc(Cl)c1NC1=NCCN1
inactive: [5] 0.191 | [6] 0.151 | [7] 0.106 | [8] 0.154

C[C@@H]1O[C@@H](O[C@H]2C[C@@H](O)[C@]3(CO)[C@H]4[C@H](O)C[C@]5(C)[C@@H](C6=CC(=O)OC6)CC[C@]5(O)[C@@H]4CC[C@]3(O)C2)[C@H](O)[C@H](O)[C@H]1O
active: [1] -2.32 | [2] -1.95 | [5] -0.747 | [6] -0.523 | [3] -3.06 | [4] -3.54 | [7] -4.02 | [8] -3.81
